In PMC4336329 (PLoS ONE, 2015):
About 14,000 (4.5%) of roughly 310,000 compounds showed an effect of 50% or more. The effect is printed as a negative number. This is one part of the list.

Each compound was assayed against human ether-à-go-go-related gene (hERG) potassium channel (human, UniProt Q12809) (assay: primary screen, population patch clamp on CHO cells stably expressing hERG).
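Note: peak tail current of the secondary pulse compared with the same well before compound.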

human ether-à-go-go-related gene (hERG) potassium channel, sequence (Q12809 whole entry, looked up): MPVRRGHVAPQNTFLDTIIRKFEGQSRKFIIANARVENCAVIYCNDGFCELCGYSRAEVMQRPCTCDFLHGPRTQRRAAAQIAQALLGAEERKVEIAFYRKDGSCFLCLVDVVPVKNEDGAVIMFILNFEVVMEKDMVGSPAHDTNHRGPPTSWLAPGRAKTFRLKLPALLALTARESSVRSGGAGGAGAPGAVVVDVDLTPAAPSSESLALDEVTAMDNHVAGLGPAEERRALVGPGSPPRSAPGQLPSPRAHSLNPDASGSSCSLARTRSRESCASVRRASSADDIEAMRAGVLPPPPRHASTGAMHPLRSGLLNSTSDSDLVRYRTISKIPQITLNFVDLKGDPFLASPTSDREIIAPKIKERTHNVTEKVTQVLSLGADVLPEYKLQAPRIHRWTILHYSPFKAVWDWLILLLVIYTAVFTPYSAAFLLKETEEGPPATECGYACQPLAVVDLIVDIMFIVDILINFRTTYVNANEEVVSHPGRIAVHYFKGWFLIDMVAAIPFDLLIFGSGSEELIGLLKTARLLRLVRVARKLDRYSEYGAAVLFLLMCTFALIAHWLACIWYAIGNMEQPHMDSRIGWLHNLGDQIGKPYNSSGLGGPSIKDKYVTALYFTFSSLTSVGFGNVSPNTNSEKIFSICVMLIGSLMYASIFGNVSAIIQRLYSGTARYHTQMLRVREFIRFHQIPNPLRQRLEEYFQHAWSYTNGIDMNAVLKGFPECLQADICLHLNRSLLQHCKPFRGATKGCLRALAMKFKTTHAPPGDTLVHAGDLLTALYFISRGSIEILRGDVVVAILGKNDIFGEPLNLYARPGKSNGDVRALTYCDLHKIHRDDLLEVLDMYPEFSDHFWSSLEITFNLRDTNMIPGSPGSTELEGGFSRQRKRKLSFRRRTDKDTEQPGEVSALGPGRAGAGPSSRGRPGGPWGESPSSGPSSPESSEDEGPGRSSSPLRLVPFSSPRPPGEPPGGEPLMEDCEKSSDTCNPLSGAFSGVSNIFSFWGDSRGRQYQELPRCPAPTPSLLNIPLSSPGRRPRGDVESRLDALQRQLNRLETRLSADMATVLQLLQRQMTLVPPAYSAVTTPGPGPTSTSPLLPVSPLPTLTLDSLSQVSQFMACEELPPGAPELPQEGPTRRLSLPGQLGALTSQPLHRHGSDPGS

| Structure (SMILES) | hERG current change (%, negative = inhibition) at 10uM [%] |
| --- | --- |
| Cn1cnc2cc(NCc3ccccc3O)ccc21 | 6.3 |
| O=C(CN1CCN(c2ccccc2O)CC1)NC(c1ccccc1)c1ccccc1 | -22.7 |
| COc1ccc(NC(=O)CNS(=O)(=O)c2ccc3nc(C)sc3c2)c(OC)c1 | -8.28 |
| C=CCN1C(=O)C(CC(=O)O)SC1=Nc1ccc(C(=O)O)cc1 (stereo not drawn) | 20.9 |
| CC(=O)Cc1cc(=O)c2c(C)cc(O)c(C3OC(CO)C(O)C(O)C3O)c2o1 (stereo not drawn) | 5.85 |
| CCc1ccc(N(C(=O)CCC(=O)Nc2cc(C)on2)C(C(=O)NC(C)(C)C)c2ccc(OC)cc2)cc1 (stereo not drawn) | -8.1 |
| Cc1ccccc1NC(=O)CN1C(=O)NC2(CCc3ccccc32)C1=O (stereo not drawn) | 5.57 |
| CC(=O)Nc1ccc(/C=C2\Sc3ccccc3C2=O)cc1 | 2.33 |
| C=CCNC(=O)/C(C#N)=C/c1c(N2CCN(c3cccc(Cl)c3)CC2)nc2c(C)cccn2c1=O | 17.1 |
| Cc1cc(C)n(CC(=O)N2CCc3ccccc32)c(=O)c1C#N | 20.7 |
| O=C(c1ccc(S(=O)(=O)N2CCCCC2)cc1)N1CCN(CCN2C(=O)c3cccc4cccc(c34)C2=O)CC1 | 26 |
| N#Cc1ccc(-c2c(-c3ccccc3)ncc3cc(F)ccc23)cc1 | 7.11 |
| N#Cc1cccc2cccc(S(=O)(=O)N3CCOCC3)c12 | -3.63 |
| Cc1ccccc1CNC(=O)Cn1ccc2cc(S(=O)(=O)N3CCCCCC3)ccc21 | 19 |
| Cn1c(COc2ccc3ccccc3c2)nnc1SCC(=O)O | 8.77 |
| O=C(NCCCn1cccn1)c1cc(COc2ccc(F)cc2Cl)on1 | -43.8 |
| CC1CCCCN1C(=O)CN1CCC(c2nc3ccc(Cl)cc3[nH]2)CC1 (stereo not drawn) | -60.2 |
| S=C(Nc1ccc(Br)cc1)Nc1ccc2c(c1)OCCO2 | 20.5 |
| CC(C)Cc1nc2n[nH]c(N)c2c2c1CCCC2 | 1.39 |
| CCCc1cc(O)c2c(C)cc(=O)oc2c1 | 6.51 |
| O=C(O)CSC(NC(=O)c1cccnc1)(C(F)(F)F)C(F)(F)F | 6.73 |
| CC[C@H](C)[C@@H](C(=O)NCCCCCCCCCCC(=O)N1CCN(C(=O)OC(C)(C)C)CC1)n1cc(CCCCN=C(NC(=O)OC(C)(C)C)NC(=O)OC(C)(C)C)nn1 | 2.47 |
| CCN(CC)c1ccc(/C=C(\C#N)C(=O)NCc2ccccc2)cc1 | -6.8 |
| COC(=O)c1ccccc1NC(=O)CN1CCc2ccccc2C1 | -8.92 |
| CCC(=O)Nc1nc2ccccc2n1CCN1CCOCC1 | 16.2 |
| CCN(CC)CCCN(C(=O)c1ccco1)c1nc(-c2ccc(Cl)cc2)cs1.Cl | -71.2 |
| COC(=O)c1ccc(CSCC(=O)Nc2cc(OC)cc(OC)c2)o1 | 3.05 |

| Structure (SMILES) | hERG current change (%, negative = inhibition) at 10uM [%] |
| --- | --- |
| O=C(/C=C/c1cccc([N+](=O)[O-])c1)NCc1ccco1 | -33 |
| CC(C)(C)NC(=O)C(c1ccco1)N(Cc1ccc2c(c1)OCO2)C(=O)Cn1nnc2ccccc21 (stereo not drawn) | 1.72 |
| O=C(NC(=S)NNC(=O)c1ccco1)c1ccccc1 | 21.8 |
| CC(C)c1ccccc1-n1c(SCc2cc(=O)oc3ccc4ccccc4c23)nnc1-c1cccnc1 | -2.39 |
| O=S(=O)(Nc1ccc(-c2ccc3nncn3n2)cc1)c1cccc(F)c1 | 18.1 |
| COc1ccc(C(=O)NCc2ccncc2)cc1S(=O)(=O)NCc1ccc(Cl)cc1 | -16.4 |
| N#Cc1cc(C#N)c(N2CCN(c3ccccn3)CC2)nc1N | -15.7 |
| CCOc1ccc(N(CC(=O)NCc2ccc(OC)cc2)S(=O)(=O)c2c(C)noc2C)cc1 | 0.901 |
| Cc1ccc(-n2nc3ccc(NC(=O)c4ccco4)cc3n2)cc1 | -12.4 |
| O=C(c1ccc(COc2ccccc2[N+](=O)[O-])o1)N1CCCCC1 | -25.7 |
| O=c1oc2c(CN3CCN(CCO)CC3)c(O)ccc2cc1-c1ccccn1 | -5.42 |
| CCc1ccc2oc(C(=O)Nc3cccnc3)c(C)c2c1 | 6.64 |
| Cc1ccc(NC(=O)COC(=O)Cc2c[nH]c3ccccc23)cc1C | -7.15 |
| NC(=O)c1nsc(C(=O)N(c2ccccc2F)C(C(=O)NCc2ccc(F)cc2)c2ccc(O)cc2)c1N (stereo not drawn) | -2.97 |
| O=C(O)CCCCCNc1nc(=S)[nH]c2ccccc12 | 16 |
| COc1ccccc1C(=O)NC(C)C(c1cccs1)N1CCN(C)CC1 (stereo not drawn) | -0.154 |
| CC1CC2(CC(C)(C(=O)CSc3nc4ccccc4s3)OC2=O)C(=O)O1 (stereo not drawn) | -1.16 |
| CC1(C)Oc2ccc(C#N)cc2[C@@H](N2CCCC2=O)[C@@H]1O | -3.29 |
| COc1ccccc1C(=O)Nc1ccc2c(c1)CN(C(=O)CSC)CC2 | -5.94 |
| COc1ccc(CCN=Cc2c(C)[nH]n(-c3ccc([N+](=O)[O-])cc3)c2=O)cc1OC | 16.4 |
| O=C(CNC(=O)c1cccc(F)c1)N/N=C/c1ccc([N+](=O)[O-])s1 | -31.1 |
| Cc1nnc(SCC(=O)NNC(=O)COc2ccc(Cl)cc2)s1 | -3.91 |
| COc1cc(NC(=O)COC(=O)/C=C/c2ccccc2Cl)cc(OC)c1 | 9.31 |
| COC(=O)CSc1nsc(SCC(=O)OC)n1 | 2.1 |
| COc1ccc(Br)cc1C1CC(=O)C(C)C(c2cc(Br)ccc2OC)N1 (stereo not drawn) | 19.5 |
| c1ccc(-c2ncnc3nc4n(c23)CCC4)cc1 | 10.3 |
| COc1ccc(-c2sc3cc(OC)c(OC)cc3c2C#CCCO)cc1 | 7.26 |
